Experimental data from PubChem BioAssay (NCATS).
This list was built around the results that the source calls inconclusive (neither active nor inactive); the mix of calls is not that of the screen. Potencies beside an inconclusive call are fits to weak or partial responses and may not hold up. Calls of active or inactive are those of the source. Calls follow the shape of the dose curve; as a rule, active = well fitted curve in the direction sought with a large enough effect; inconclusive = small, poorly fitted or top-dose-only effect, or another doubt; inactive = no such curve, though single readings can be large; an effect the other way counts as inactive or inconclusive.

Experiment: BET inhibitor-based combinations targeting novel dependencies in MECOM-rearranged (r) AML: UCSD-AML1 cell line (AID 2202235); also: nearly all actives have a fitted effect of over 40% in size
Details: UCSD-AML1 AML cells viability, CellTiter-Glo, 48 h; viability (% of control): at 46 µM (top of the series)
Outline: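 Activity is given as area under the curve and as Z-AUC, mean-centred within each cell line. It comes from 11-point dose curves normalized to DMSO and empty wells. CellTiter-Glo luminescence was read after 48 hr drug exposure of 500 cells/well.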
Potency is read from the fitted curve at half-maximal effect; tags tell the direction and shape of the fitted curve.

Q: For `CNC1CCC(N(Cc2cccc(-c3ccncc3)c2)C(=O)c2sc3ccccc3c2Cl)CC1` (stereo not given), which Potency is on record?
A: inconclusive: 8.33 µM [inhibitor, single point]

Q: For `COc1cccc2nc(-c3cccs3)nc(NN3C(=O)C=C(C)C3=O)c12`, which Potency is on record?
A: active: 0.105 µM

Q: Which Potency does the source give for `C[C@H]1Oc2cc(cnc2N)-c2c(nn(C)c2C#N)CN(C)C(=O)c2ccc(F)cc21` here?
A: inconclusive: 18.6 µM [inhibitor, partial curve]

Q: Which Potency does the source give for `COCCCc1sc(-c2ccccc2)nc1C(=O)Nc1ccccc1-c1nc2cc(CN3CCCC3)cnc2s1` here?
A: inconclusive: 18.2 µM [inhibitor, single point]

Q: With `O=C1CCCC2=C1C(c1[nH]ncc1Cl)N=C(Nc1nc3ccccc3o1)N2` (stereo not given) as the compound, how does the Potency read?
A: inconclusive: 8.33 µM [inhibitor, single point]

Q: With `CNS(=O)(=O)c1ccc2c(c1)/C(=C/c1[nH]c3c(c1CCCN1CCN(C)CC1)CCCC3)C(=O)N2` as the compound, how does the Potency read?
A: inconclusive: 10.5 µM [inhibitor, single point]

Q: For `CN(C)c1ccc(-c2nc3ncc(Cl)c(N4CCN(CC(=O)Nc5nccs5)CC4)c3[nH]2)cc1`, which Potency is on record?
A: inconclusive: 2.29 µM [inhibitor, full curve]

Experiment: BET inhibitor-based combinations targeting novel dependencies in MECOM-rearranged (r) AML: AML-191 cell line (AID 2202236; also: nearly all actives have a fitted effect of over 35% in size;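 as to viability (% of control): plate controls were vehicle wells for no effect and wells without cells for full effect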)
Details: AML-191 viability, CellTiter-Glo luminescence, 48 h; series mostly up to 46 µM; viability (% of control): at the top concentration
Outline: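 Cells were plated at 500 per well and exposed to an 11-point dose series of each drug for 48 hr. Viability was measured by CellTiter-Glo luminescence, normalized to DMSO and empty-well controls, and summarized as AUC and per-cell-line Z-AUC.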

Q: With `COc1cccc2nc(-c3cccs3)nc(NN3C(=O)C=C(C)C3=O)c12` as the compound, how does the Potency read?
A: active: 0.148 µM

Q: For `CC(C)(C)C(=O)CN1C(=O)[C@H](NC(=O)Nc2cccc(C(=O)O)c2)CN(C2CCCCC2)c2ccccc21`, which “viability (% of control)” value is on record?
A: inactive: 111%

Q: Which Potency does the source give for `CC(=O)Nc1ccc(C(=O)Nc2ccccc2N)cc1` here?
A: active: 18.6 µM

Q: With `COCCCc1sc(-c2ccccc2)nc1C(=O)Nc1ccccc1-c1nc2cc(CN3CCCC3)cnc2s1` as the compound, how does the Potency read?
A: inconclusive: 18.2 µM [inhibitor, single point]

Q: For `CNS(=O)(=O)c1ccc2c(c1)/C(=C/c1[nH]c3c(c1CCCN1CCN(C)CC1)CCCC3)C(=O)N2`, which Potency is on record?
A: active: 14.8 µM

Q: Which Potency does the source give for `C[C@H](Nc1ncnc2nc[nH]c12)c1cc2cccc(Cl)c2c(=O)n1-c1ccccc1` here?
A: inconclusive: 13.2 µM [inhibitor, partial curve]

Q: With `CN(C)c1ccc(-c2nc3ncc(Cl)c(N4CCN(CC(=O)Nc5nccs5)CC4)c3[nH]2)cc1` as the compound, how does the Potency read?
A: inconclusive: 4.56 µM [inhibitor, partial curve]

Q: For `CCCCOc1c(C(=O)c2c(F)cc(C)cc2F)cnc2n[nH]cc12`, which Potency is on record?
A: active: 2.63 µM
